Source: US11618753B2 (priority 2018, dated 2023)
Where a name gives a salt, the structure may show the parent alone.

test system: MLKL phosphorylation, HT29-L23 human colorectal adenocarcinoma cells; experiment: cells; conditions: read-out: pMLKL HCS Cell Assay (IC50, uM)

Row | SMILES | IC50 [µM]
1 | COc1ncc(-c2cc(C(F)(F)F)c3c(N)ncnn23)cc1C(=O)N[C@@H]1CN(C(=O)CC(C(F)(F)F)C(F)(F)F)C[C@@H]1F [Example 1222, 5-[4-amino-5-(trifluoromethyl)pyrrolo[2,1-f][1,2,4]triazin-7-yl]-N-[(3R,4S)-4-fluoro-1-[4,4,4-trifluoro-3-(trifluoromethyl)butanoyl]pyrrolidin-3-yl]-2-methoxypyridine-3-carboxamide] | 0.0047
2 | Cc1ccc(-c2cc(C(F)(F)F)c3c(N)ncnn23)cc1C(=O)N[C@@H]1CN(C(=O)c2cscn2)C[C@@H]1F [Example 1004, 5-[4-amino-5-(trifluoromethyl)pyrrolo[2,1-f][1,2,4]triazin-7-yl]-N-[(3R,4S)-4-fluoro-1-(1,3-thiazole-4-carbonyl)pyrrolidin-3-yl]-2-methylbenzamide] | 0.017
3 | Cc1ncc(-c2cc(C(F)(F)F)c3c(N)ncnn23)cc1C(=O)Nc1ccn(Cc2ccccc2)n1 [Example 1726, 5-(4-amino-5-(trifluoromethyl)pyrrolo[2,1-f][1,2,4]triazin-7-yl)-N-(1-benzyl-1H-pyrazol-3-yl)-2-methylnicotinamide] | 0.0014
4 | [2H]C([2H])([2H])Oc1ncc(-c2cc(CN3CC(F)(F)C3)c3c(N)ncnn23)cc1C(=O)N[C@@H]1CN(C(=O)C2CCC(F)(F)C2)C[C@@H]1F (stereo partly drawn) [Example 1272, 5-{4-amino-5-[(3,3-difluoroazetidin-1-yl)methyl]pyrrolo[2,1-f][1,2,4]triazin-7-yl}-N-[(3R,4S)-1-(3,3-difluorocyclopentanecarbonyl)-4-fluoropyrrolidin-3-yl]-2-(methoxy-d3)nicotinamide] | 0.00038
5 | COc1ncc(-c2cc(CO)c3c(N)ncnn23)cc1C(=O)NCC[C@H](O)c1ccc(Cl)cc1 [Example 52, (S)-5-(4-amino-5-(hydroxymethyl)pyrrolo[2,1-f][1,2,4]triazin-7-yl)-N-(3-(4-chlorophenyl)-3-hydroxypropyl)-2-methoxynicotinamide] | 0.042
6 | C[C@@](O)(C(=O)N1C[C@H](F)[C@H](NC(=O)c2cc(-c3cc(C(F)(F)F)c4c(N)ncnn34)c(F)cc2Cl)C1)C(F)(F)F [Example 402, 5-[4-amino-5-(trifluoromethyl)pyrrolo[2,1-f][1,2,4]triazin-7-yl]-2-chloro-4-fluoro-N-[(3R,4S)-4-fluoro-1-[(2R)-3,3,3-trifluoro-2-hydroxy-2-methylpropanoyl]pyrrolidin-3-yl]benzamide] | 0.0048
7 | COc1ncc(-c2c(C#N)cc3c(N)ncnn23)cc1C(=O)N[C@@H]1CN(C(=O)C2(C(F)(F)F)CC2)C[C@@H]1F [Example 554, 5-(4-amino-6-cyanopyrrolo[2,1-f][1,2,4]triazin-7-yl)-N-((3R,4S)-4-fluoro-1-(1-(trifluoromethyl)cyclopropane-1-carbonyl)pyrrolidin-3-yl)-2-methoxynicotinamide] | 0.11
8 | Cc1cc(F)c(-c2cc(C(F)(F)F)c3c(N)ncnn23)cc1C(=O)N[C@@H]1CN(C(=O)c2cnccc2Cl)C[C@@H]1F [Example 818, 5-[4-amino-5-(trifluoromethyl)pyrrolo[2,1-f][1,2,4]triazin-7-yl]-N-[(3R,4S)-1-(4-chloropyridine-3-carbonyl)-4-fluoropyrrolidin-3-yl]-4-fluoro-2-methylbenzamide] | 0.0087
9 | Cc1cc(F)c(-c2cc(C(F)(F)F)c3c(N)ncnn23)cc1C(=O)N[C@@H]1CN(C(=O)c2cc(C#N)ccc2F)C[C@@H]1F [Example 811, 5-[4-amino-5-(trifluoromethyl)pyrrolo[2,1-f][1,2,4]triazin-7-yl]-N-[(3R,4S)-1-(5-cyano-2-fluorobenzoyl)-4-fluoropyrrolidin-3-yl]-4-fluoro-2-methylbenzamide] | 0.023
10 | CCc1ccc(-c2cc(C(F)(F)F)c3c(N)ncnn23)c(F)c1C(=O)N[C@@H]1CN(C(=O)c2ccccc2F)C[C@@H]1F [Example 744, 3-[4-amino-5-(trifluoromethyl)pyrrolo[2,1-f][1,2,4]triazin-7-yl]-6-ethyl-2-fluoro-N-[(3R,4S)-4-fluoro-1-(2-fluorobenzoyl)pyrrolidin-3-yl]benzamide] | 0.034
11 | Nc1ncnn2c(-c3ccc(Cl)c(C(=O)N[C@@H]4CN(C(=O)c5cnccc5Cl)C[C@@H]4F)c3)cc(C(F)(F)F)c12 [Example 959, 5-[4-amino-5-(trifluoromethyl)pyrrolo[2,1-f][1,2,4]triazin-7-yl]-2-chloro-N-[(3R,4S)-1-(4-chloropyridine-3-carbonyl)-4-fluoropyrrolidin-3-yl]benzamide] | 0.026
12 | Nc1ncnn2c(-c3ccc(Cl)c(C(=O)N[C@@H]4CN(C(=O)C5CC(F)(F)C5)C[C@@H]4F)c3)cc(CN3CCC(F)(F)CC3)c12 [Example 1140, 5-{4-amino-5-[(4,4-difluoropiperidin-1-yl)methyl]pyrrolo[2,1-f][1,2,4]triazin-7-yl}-2-chloro-N-[(3R,4S)-1-(3,3-difluorocyclobutanecarbonyl)-4-fluoropyrrolidin-3-yl]benzamide] | 0.0011
13 | Cc1cc(F)c(-c2cc(C(F)(F)F)c3c(N)ncnn23)cc1C(=O)N[C@@H]1CN(C(=O)CC(F)(F)F)C[C@@H]1F [Example 796, 5-[4-amino-5-(trifluoromethyl)pyrrolo[2,1-f][1,2,4]triazin-7-yl]-4-fluoro-N-[(3R,4S)-4-fluoro-1-(3,3,3-trifluoropropanoyl)pyrrolidin-3-yl]-2-methylbenzamide] | 0.0035
14 | COc1ncc(-c2c(C#N)cc3c(N)ncnn23)cc1C(=O)Nc1cnn(Cc2ccccc2)c1 [Example 550, 5-(4-amino-6-cyanopyrrolo[2,1-f][1,2,4]triazin-7-yl)-N-(1-benzyl-1H-pyrazol-4-yl)-2-methoxynicotinamide] | 0.00085
15 | CCC(O)(C(=O)N1C[C@H](F)[C@H](NC(=O)c2cc(-c3cc(C(F)(F)F)c4c(N)ncnn34)c(F)cc2F)C1)C(F)(F)F (stereo partly drawn) [Example 781, 5-[4-amino-5-(trifluoromethyl)pyrrolo[2,1-f][1,2,4]triazin-7-yl]-2,4-difluoro-N-[(3R,4S)-4-fluoro-1-[2-hydroxy-2-(trifluoromethyl)butanoyl]pyrrolidin-3-yl]benzamide] | 0.026
16 | [2H]C([2H])([2H])Oc1ncc(-c2cc(C(F)(F)F)c3c(N)ncnn23)cc1C(=O)N[C@@H]1CN(C(=O)CC(C)C)C[C@@H]1F [Example 387, 5-[4-amino-5-(trifluoromethyl)pyrrolo [2,1-f][1,2,4]triazin-7-yl]-N-[(3R,4S)-4-fluoro-1-(3-methylbutanoyl)pyrrolidin-3-yl]-2-(deutero)methoxypyridine-3-carboxamide, TFA] | 0.015
17 | COc1ncc(-c2cc(C(F)(F)F)c3c(N)ncnn23)cc1C(=O)N[C@@H]1CN(C(=O)C2CC(F)(F)C2)C[C@@H]1F [Example 31-1, 5-[4-amino-5-(trifluoromethyl)pyrrolo[2,1-f][1,2,4]triazin-7-yl]-N-[1-(3,3-difluorocyclobutanecarbonyl)-(3R,4S)-4-fluoropyrrolidin-3-yl]-2-methoxypyridine-3-carboxamide] | 0.013
18 | COc1ncc(-c2cc(C(F)(F)F)c3c(N)ncnn23)cc1C(=O)N[C@@H]1CN(C(=O)C2(F)CC2)C[C@@H]1F [Example 331, 5-[4-amino-5-(trifluoromethyl)pyrrolo[2,1-f][1,2,4]triazin-7-yl]-N-[(3R,4S)-4-fluoro-1-(1-fluorocyclopropanecarbonyl)pyrrolidin-3-yl]-2-methoxypyridine-3-carboxamide] | 0.027
19 | Nc1ncnn2c(-c3cc(F)c(CF)c(C(=O)N[C@@H]4CN(C(=O)C5CCC(F)(F)C5)C[C@@H]4F)c3)cc(C(F)(F)F)c12 (stereo partly drawn) [Example 618, 5-[4-amino-5-(trifluoromethyl)pyrrolo[2,1-f][1,2,4]triazin-7-yl]-N-[(3R,4S)-1-(3,3-difluorocyclopentanecarbonyl)-4-fluoropyrrolidin-3-yl]-3-fluoro-2-(fluoromethyl)benzamide] | 0.0023
20 | COc1ncc(-c2cc(C(F)(F)F)c3c(N)ncnn23)cc1C(=O)NC1CN(Cc2ccccn2)CC1F (racemic) [Example 210, 5-[4-amino-5-(trifluoromethyl)pyrrolo[2,1-f][1,2,4]triazin-7-yl]-N-{4-fluoro-1-[(pyridin-2-yl)methyl]pyrrolidin-3-yl}-2-methoxypyridine-3-carboxamide] | 0.09
21 | Nc1ncnn2c(-c3ccc(Cl)c(C(=O)N[C@@H]4CN(C(=O)C5(F)CC5)C[C@@H]4F)c3)cc(CN3CCC(F)(F)CC3)c12 [Example 1143, 5-{4-amino-5-[(4,4-difluoropiperidin-1-yl)methyl]pyrrolo[2,1-f][1,2,4]triazin-7-yl}-2-chloro-N-[(3R,4S)-4-fluoro-1-(1-fluorocycloproapnecarbonyl)pyrrolidin-3-yl]benzamide] | 0.00053
22 | Cc1ccc(-c2cc(CN3CCC(C(F)(F)F)CC3)c3c(N)ncnn23)cc1C(=O)N[C@@H]1CN(C(=O)C2CC(F)(F)C2)C[C@@H]1F [Example 1648, 5-(4-amino-5-{[4-(trifluoromethyl)piperidin-1-yl]methyl}pyrrolo[2,1-f][1,2,4]triazin-7-yl)-N-[(3R,4S)-1-(3,3-difluorocyclobutanecarbonyl)-4-fluoropyrrolidin-3-yl]-2-methylbenzamide] | 0.00067
23 | COc1ncc(-c2cc(C(F)(F)F)c3c(N)ncnn23)cc1C(=O)NC1CCC(c2ccccc2)C1 (stereo not shown) [Example 1688, 5-(4-amino-5-(trifluoromethyl)pyrrolo[2,1-f][1,2,4]triazin-7-yl)-2-methoxy-N-(3-phenylcyclopentyl)nicotinamide] | 0.086
24 | CC(C)CC(=O)N1C[C@H](F)[C@H](NC(=O)c2c(F)ccc(-c3cc(C(F)(F)F)c4c(N)ncnn34)c2F)C1 [Example 719, 3-[4-amino-5-(trifluoromethyl)pyrrolo[2,1-f][1,2,4]triazin-7-yl]-2,6-difluoro-N-[(3R,4S)-4-fluoro-1-(3-methylbutanoyl)pyrrolidin-3-yl]benzamide] | 0.122
25 | Cc1ccc(-c2cc(C(F)(F)F)c3c(N)ncnn23)cc1C(=O)N[C@@H]1CN(C(=O)c2ncc(F)cc2F)C[C@@H]1F [Example 1007, 5-[4-amino-5-(trifluoromethyl)pyrrolo[2,1-f][1,2,4]triazin-7-yl]-N-[(3R,4S)-1-(3,5-difluoropyridine-2-carbonyl)-4-fluoropyrrolidin-3-yl]-2-methylbenzamide] | 0.009
